This is an account of results in ChEMBL document CHEMBL4888484, “Replenishing the malaria drug discovery pipeline: Screening and hit evaluation of the MMV Hit Generation Library 1 (HGL1) against asexual blood stage Plasmodium falciparum ,using a nano luciferase reporter read-out” (2022).

Structures are written as SMILES. The campaign covered roughly 150,000 compounds. About 540 (0.36%) showed an effect of 50% or more. This is one part of the list.

One may read the % Inhibition as the relative decrease from the control value, in per cent.

The subject of this experiment is Plasmodium falciparum. Kind of experiment: Primary screen in NF54 nanoGlo assay, in single point, at 2uM, 72h; a lower Z score goes with more inhibition. Type of experiment: functional, Erythrocyte. The settings on record: timepoint 72 hour.
Regarding `CCn1c(=O)c2sccc2n(CC(=O)NCc2ccc(OC)cc2)c1=O`, the “% Inhibition” value amounted to 4% and the Z score is -0.65.

For the molecule `CC1CN(C(C(C)N)C(F)(F)F)CC(C)O1` (centres undefined), the “% Inhibition” value was determined as 1% and the Z score was -0.08.

As to `CCO[C@H](c1nc(-c2nccc3ccccc23)no1)C(C)C`, the “% Inhibition” value was 0% and the Z score is 0.01.

For the molecule `O=C(c1ccccn1)[C@H]1CCCN(C(=O)NCCN2CCCOC2=O)C1`, the “% Inhibition” value is reported as -1% and the Z score is 0.12.

As to `CCCN(C(=O)C(=O)Nc1nncs1)C1CCCC1`, the “% Inhibition” value is reported as -4% and the Z score turned out to be 0.65.

Turning to `Cc1ncc(C(=O)N2CCC[C@]3(CCC(=O)N(C4CCCC4)C3)C2)c(=O)[nH]1`, the “% Inhibition” value is listed as -14% and the Z score worked out at 1.27.

Consider `CCCNC(=O)CN1CCC[C@H]1c1ccon1`, for which the “% Inhibition” value is reported as -3% and the Z score is listed as 0.36.

On to `CC1NC2(C(=O)N(Cc3ccc(Cl)c(Cl)c3)c3ccccc32)C2C(=O)N(c3ccccc3)C(=O)C12` (centres undefined), for which the “% Inhibition” value was -4% and the Z score is given as 0.66.

`CC1CCN(C[C@]2(O)CCCN(CCCc3ccccc3)C2=O)CC1`: the “% Inhibition” value is recorded as -8% and the Z score amounted to 1.14.

Regarding `O=C1NC[C@H]2O[C@H](CCOc3cc(-c4ccccc4)ccc3C(=O)N3CCN(CC4CC4)C[C@@H]13)CC[C@@H]2O`, the “% Inhibition” value is given as -3% and the Z score is given as 0.49.

On to `Cc1ccc(S(=O)(=O)N2[C@@H]3CC[C@H]2CC(NC(=O)c2ccc(F)cc2)C3)c(C)c1` (some centres undefined), for which the “% Inhibition” value was -3% and the Z score worked out at 0.54.

Take `CCCn1nc(C2CCOCC2)nc1[C@H]1CCC(=O)N(C)C1`: the “% Inhibition” value is listed as -16% and the Z score is listed as 3.16.

Take `Cc1ccc(-c2nc(CN(C)Cc3ccc(-n4cccn4)cc3)c(C)o2)o1`: the “% Inhibition” value is listed as -18% and the Z score came out at 2.35.

On to `CCCNC(=O)N1CCCCCCN(C)C(=O)CC1`, for which the “% Inhibition” value is reported as -19% and the Z score was 2.55.

Take `C[C@@H](CCc1ccccc1)NC(=O)Cc1csc(NC(=O)CN(C(=O)c2ccc(F)cc2)C2CC2)n1`: the “% Inhibition” value is recorded as -3% and the Z score was 0.39.

As to `Cc1nc(CN[C@@H](C)c2ccc(-c3cccc(C#N)c3)cc2)oc1C`, the “% Inhibition” value was -17% and the Z score amounted to 2.

With `Cc1c(Cl)cccc1OC1=NNC(N)=C(N)O1`, the “% Inhibition” value is on record as -3% and the Z score is 0.32.

On to `CCN(CC)c1ccc(NC(=O)C2(S(C)(=O)=O)CCC2)cn1`, for which the “% Inhibition” value is -12% and the Z score was 1.31.

In the case of `COc1cc(NC(=O)C2CC2c2cnn(C)c2)c(C(=O)N2CCCCC2)cc1OC` (centres undefined), the “% Inhibition” value is recorded as -7% and the Z score was found to be 0.81.

On to `COC(=O)CCN(CC(=O)Nc1nc(C)cs1)CC(C)C`, for which the “% Inhibition” value was -3% and the Z score turned out to be 0.35.

As for `Cc1ccc(CNC(C)CC(C)O)s1` (centres undefined), the “% Inhibition” value is listed as -6% and the Z score came to 0.75.

In the case of `CC(C)(C)c1nnc(NC[C@H](O)COCC2CC2)s1`, the “% Inhibition” value is reported as 30% and the Z score was -3.36.

Regarding `CCCc1nc(N[C@H](c2ccccc2)c2nnc(N)s2)c2cnn(C)c2n1`, the “% Inhibition” value is 0% and the Z score is recorded as 0.05.

For `COCCNC(=O)COc1ccc(-n2cccn2)nn1`, the “% Inhibition” value is recorded as -8% and the Z score was 1.49.

For the molecule `Cc1cccc(N(C)C(=O)COCCc2ccccc2)n1`, the “% Inhibition” value was 2% and the Z score is on record as -0.31.

As to `Cc1cc(C(=O)NC[C@@H](CO)Cc2ccccn2)ccc1F`, the “% Inhibition” value is listed as -10% and the Z score amounted to 1.01.

Turning to `CCN1C[C@]2(CCCN(C(=O)c3nc4ccc(C)cn4c3F)C2)CCC1=O`, the “% Inhibition” value is 0% and the Z score turned out to be 0.

Consider `O=C1Nc2ccccc2S(=O)(=O)N1Cc1cnn(-c2ccccc2)n1`, for which the “% Inhibition” value is on record as -8% and the Z score stood at 0.89.

Regarding `Cc1c(S(=O)(=O)c2ccccc2)c(NC(=O)[C@@H]2CCCO2)n(C2CCCC2)c1C`, the “% Inhibition” value is -9% and the Z score came to 1.17.

Regarding `CCCCc1nc([C@@H]2CC(=O)Nc3cc(O)c(OC)cc32)c[nH]1`, the “% Inhibition” value is listed as -20% and the Z score worked out at 3.14.

Turning to `O=C(c1conc1C1CC1)N1CCC[C@H](c2nnc3ccccn23)C1`, the “% Inhibition” value amounted to 10% and the Z score was -1.51.

Regarding `Cc1ccoc1C(=O)N[C@@H]1CN(c2ncccn2)C[C@H]1CO`, the “% Inhibition” value was -10% and the Z score was 1.43.

As for `O=C(N1CC(F)C1)C1(S(=O)(=O)c2ccccc2)CCOCC1`, the “% Inhibition” value is listed as -4% and the Z score was determined as 0.4.

Take `O=C(c1ccc(F)cn1)N1CCCC[C@H]1c1n[nH]c2c1COCC2`: the “% Inhibition” value is given as -2% and the Z score was 0.16.

For the molecule `CC(O)CC1CCCCN1Cc1nc(C(C)C)ns1` (centres undefined), the “% Inhibition” value is listed as -6% and the Z score is recorded as 1.25.

`CCC(NC(=O)CC(O)C(C)C)c1ccccc1O` (centres undefined): the “% Inhibition” value was -8% and the Z score was determined as 0.86.

Take `C[C@@H](CO)NC(=O)C1CCC(F)(F)CC1`: the “% Inhibition” value worked out at 0% and the Z score was found to be 0.03.

`COC(=O)Nc1ccc(NC(=O)CC2CCC2)cc1F`: the “% Inhibition” value was -7% and the Z score is given as 0.91.

For the molecule `C=CCOc1ccc(CNCC(=O)N2CCCCC2)cc1`, the “% Inhibition” value is 2% and the Z score is on record as -0.35.

Take `CCOC(=S)c1c(N)oc2c1CCN(Cc1ccccc1)C2`: the “% Inhibition” value worked out at 2% and the Z score is reported as -0.23.

Regarding `Cc1cccc(CC(=O)Nc2cnn(-c3cccc(C(=O)N4CCC[C@H]4CO)c3)c2)c1`, the “% Inhibition” value was 13% and the Z score is -1.71.

Turning to `C[C@H]1CN(c2nccc(C(F)(F)F)n2)CC[C@]1(O)C1CC1`, the “% Inhibition” value is reported as -21% and the Z score turned out to be 2.75.
